Experimental data reported in ChEMBL document CHEMBL5308541, “MAIP: An Open-Source Tool to Enrich High-Throughput Screening Output and Identify Novel, Druglike Molecules with Antimalarial Activity” (ACS Med Chem Lett, 2023).
The campaign covered roughly 150,000 compounds. About 540 (0.36%) showed an effect of 50% or more. The list shows a part of the results.

test system: Plasmodium falciparum; experiment: Primary screen in NF54 nanoGlo assay, in single point, at 2uM, 72h; a lower Z score goes with more inhibition; type: functional, Erythrocyte; conditions: timepoint 72 hour

Row | SMILES | % Inhibition [%] | Z score
1 | CN1CCN(C(=O)Nc2ncc(-c3ccccc3)s2)[C@@H](CNC(=O)OC(C)(C)C)C1 | -2 | 0.32
2 | COc1ccc([C@H](C(=O)O)N2CCCOc3c(cccc3OC)C2)cc1F | -5 | 0.92
3 | Fc1cnc(NCCCOC2CCN(Cc3ccccc3)CC2)nc1 | 4 | -0.82
4 | CN1CCC(OCCCNC(=O)c2cccc(-c3cccc(C#N)c3)c2)CC1 | 5 | -0.77
5 | O=C(c1cc(-c2ccccc2)[nH]n1)N1CCC(N2CCC[C@@H]2COCc2ccccc2)CC1 | -1 | 0.24
6 | Oc1nc2ccccc2cc1CNc1cccc(-c2nnc[nH]2)c1 | -7 | 1.22
7 | CCOC1CC(CNC2CCN(C3CCCCC3)CC2)(N2CCOCC2)C1 (centres undefined) | -1 | 0.19
8 | Cc1cc(N2CCN(S(=O)(=O)c3cccnc3)CC2)nc(NC2CCCCC2)n1 | 1 | -0.17
9 | Fc1ccc([C@H]2CCN(Cc3ccc4[nH]ccc4c3)C2)cc1 | -4 | 0.88
10 | Fc1cc2ncnc(N3CCCN(C4CCOCC4)CC3)c2cc1F | 2 | -0.43
11 | N#Cc1cnc2ccccc2c1Nc1ccccc1Cl | -3 | 0.65
12 | Clc1ccccc1N1CC[C@H](c2nc(-c3cccc4[nH]ccc34)no2)C1 | 0 | -0.01
13 | CC1(S(=O)(=O)NC2(C3CCC3)CCC2)CC1 | -8 | 1.45
14 | COCCO[C@@H](C)C(=O)NC1(c2ccc(F)cc2F)CCOCC1 | -2 | 0.37
15 | Cn1cc(-c2nc([C@@H]3COCCN3c3ccnc(-c4ccccc4)n3)no2)cn1 | -6 | 1.06
16 | C[C@@H](c1cccc(-c2nc(N)nc3[nH]cnc23)c1)N1CCCC1 | -6 | 1.28
17 | O=C(NC1CCCN2CCCC12)c1ccc(-c2cnco2)cc1 (centres undefined) | 1 | -0.18
18 | CCc1ncc2c(n1)CN(Cc1nc3ccc(OC)cc3s1)CC2 | 7 | -1.29
19 | O=C(Cc1c[nH]c2ccccc12)Nc1ccc(F)c(N2CCS(=O)(=O)CC2)c1 | 3 | -0.48
20 | CC(=O)N1CCc2c(nc(-c3ccccn3)nc2NCCNc2ccccc2)C1 | 2 | -0.36
21 | O=S1(=O)CCN(C2CCN(c3ncnc4ccc(F)cc34)CC2)CC1 | -9 | 1.73

Row | SMILES | % Inhibition [%] | Z score
22 | C[C@H]1CN(c2ccc(C(=O)N3CCC(Oc4cccnc4)CC3)cn2)CCN1 | -9 | 1.59
23 | Cc1ccc(F)cc1NC(=O)CNC(=O)c1cc(C(C)C)nn1C | -20 | 4.3
24 | OCCNc1nc(NCc2cccc3[nH]ccc23)cc([C@H]2CCOC2)n1 | -9 | 1.35
25 | CC(C)NC(=O)Nc1cccc(C(=O)N2CCN(Cc3ccc(F)cc3)C[C@@H]2C)c1 | -1 | 0.23
26 | CCCCC1CN(C(=O)c2cc(C)nc(C)c2)CC(C(C)C)O1 (centres undefined) | 5 | -1
27 | COc1cccc([C@@H](O)CNc2nc(N)c3ccccc3n2)c1 | 4 | -0.55
28 | CN(C)c1ncc(CN[C@H]2CCCc3c2[nH]c2ccccc32)n1C | -11 | 1.91
29 | O[C@@H]1CO[C@H]2[C@@H]1OC[C@@H]2Nc1nccc(-c2cccc3ccccc23)n1 | -4 | 0.54
30 | CCN(C)c1cc(NCCCc2nnn[nH]2)ncn1 | 1 | -0.14
31 | COC(=O)CN1CCC[C@H](CNc2ncnc3ccc(F)cc23)C1 | 1 | -0.11
32 | CCc1noc(C)c1NC(=O)C(C)(C)COCc1ccccc1 | -8 | 1.49
33 | CNS(=O)(=O)CC1CCCN(C(=O)NC2CCC(c3ccccc3F)C2)C1 (centres undefined) | -6 | 1.36
34 | C#CCC(CC#C)C(=O)NCCCCOC | -3 | 0.53
35 | Cc1ccn2ncc(C(=O)N[C@H]3CCN(C4CCN(C)CC4)C3)c2n1 | -12 | 1.89
36 | Cc1cc(C)c(C#N)c(Oc2ccc(CN3CCCC3)cc2F)n1 | 1 | -0.31
37 | CC(C)(C)OC(=O)N1CC[C@H](Oc2ccnc(-c3noc(-c4cc[nH]n4)n3)c2)C1 | -5 | 0.78
38 | Cc1cnn(C)c1S(=O)(=O)NCc1ccc(CCO)cc1 | -10 | 1.81
39 | Cc1nc(C(=O)N(C)CC2CCN(Cc3ccccc3)CC2)c(C)o1 | -6 | 1.19
40 | CN(CCOc1ccc(F)cc1)C(=O)c1cccc2ncccc12 | 3 | -0.65
41 | Cc1cc(C(=O)N2CC3(CCC3)[C@@H]2C(C)C)ccc1S(N)(=O)=O | -13 | 2
42 | CCN1CCC(N2C[C@H](NC(=O)c3cccc(-c4cccc(F)c4)c3)C[C@H]2C(=O)OC)CC1 | 7 | -1.27

Row | SMILES | % Inhibition [%] | Z score
43 | Cc1nnc(N2CC(C)(C)O[C@]3(CCOC3)C2)o1 | 0 | -0.03
44 | CC(C)(C)c1ccc(O)c(NC(=O)c2c[nH]c3ccccc3c2=O)c1 | -1 | 0.14
45 | Cc1ccn2c(C(=O)N(CCO)Cc3c(C)nn(C)c3C)c(C)nc2c1 | -8 | 1.53
46 | CNc1nc(-c2cccc(C(=O)N3CCN([C@H]4CCNC4)CC3)c2)ncc1F | -7 | 1.26
47 | COc1ccc2c(CCNc3nc(-c4ccc(C5CCCCC5)cc4)cs3)c[nH]c2c1 | -1 | 0.26
48 | O=C(OCc1ccccc1C(F)(F)F)c1cccnc1Nc1cccc(F)c1 | -11 | 1.72
49 | FC(F)(F)CN1CC[C@H](NC2CCN(c3nccs3)CC2)C1 | -13 | 2.21
50 | Cc1ccccc1C[C@H](NCc1ccc(NC(N)=O)cc1)C1CC1 | 10 | -1.48
51 | Cc1nnnn1CCC(=O)NC1CCOCC1Oc1ccc(C(=O)O)cc1 (centres undefined) | 1 | -0.19
52 | COc1cc2c(cc1OC)C1(CCN(C(=O)c3cnc(C4CC4)[nH]c3=O)CC1)OCC2 | -11 | 2.21
53 | O=C(c1cc(-c2ccccc2)[nH]n1)N1CCC(c2nc3cc(C(F)(F)F)ccc3s2)CC1 | 3 | -0.4
54 | COCCN1CCC(CN(C)Cc2cscn2)CC1 | 8 | -1.36
55 | COc1ccc2oc(C)c(C(=O)NCc3ccc(F)cc3C(F)(F)F)c2c1 | 6 | -1.15
56 | O=C(NCCc1nc2cc(Cl)ccc2[nH]1)c1ccc(-c2ccsc2)nc1N1CCCC1 | -10 | 1.82
57 | COc1ccc(Nc2ncc(CN(C)CCn3ccnc3)s2)cc1 | 1 | -0.26
58 | COC(=O)[C@@H]1CCCN1C(=O)Cc1ccc(N2CCC(NCc3cnc4ccccn34)CC2)cc1 | -7 | 1.42
59 | Cc1noc2ncnc(NCc3ccnc(OC4CCCCC4)c3)c12 | -3 | 0.44
60 | CN(Cc1ccc(Oc2ncccn2)cc1)CC1CCN(CCc2ccc(F)cc2)CC1 | -5 | 0.81
61 | O=C(NC(CO)Cc1c[nH]c2ccccc12)C1CN2CCCN1CC2 (centres undefined) | -7 | 1.3
62 | CC1CC(Nc2nc(-c3ccnc(C(F)(F)F)c3)cs2)CCO1 (centres undefined) | -4 | 0.93
63 | CN(C)c1nc(NCc2cccc(CN3CCCC3)c2)ncc1F | -6 | 1.11

Row | SMILES | % Inhibition [%] | Z score
64 | O=c1cc(-c2ccccc2Cl)nc(-c2ccc(CN3CCCNCC3)cc2)[nH]1 | -2 | 0.43
65 | Nc1nccc([C@H]2CCCN(Cc3nc4cc(F)ccc4o3)C2)n1 | -2 | 0.27
66 | CC(C)(C)c1ccc(CCCNCCN2CCNCC2)cc1 | 17 | -3.58
67 | Fc1ccc2cc(CN[C@H]3CCO[C@@H]3c3cccnc3)[nH]c2c1 | 1 | -0.18
68 | CC(C)c1ccc(-c2nc(CN3CCCCC3)cc(CN3CCCCC3)c2O)cc1 | 90 | -15.77
69 | Cc1cc(N2CCCN(C[C@H]3CN(Cc4ccccc4)CCCO3)CC2)ccn1 | -3 | 0.52
70 | O=C(NC1CCNCC1O)c1ccc(-c2ccc(Cn3ccnc3)cn2)cc1 (centres undefined) | -6 | 1.35
71 | CCN(Cc1cnn(-c2cccc(Cl)c2)c1)CC1CCN(C2CCN(C)CC2)CC1 | 82 | -14.12
72 | Cc1ccc2cccc(C(=O)Nc3c(-c4nc5ccccc5[nH]4)cnn3C)c2n1 | -2 | 0.27
73 | CC1CN(c2ccccc2NC(=O)c2ccc(-c3cnco3)cc2)CC(C)O1 (centres undefined) | 24 | -4.19
74 | CCCOc1ccc(C(=O)O)cc1NS(=O)(=O)c1c(C)cnn1C | 3 | -0.57
75 | Cc1nc2n(c1C(=O)N(C)C)CCN(C(=O)CN1C(=O)OC(C)(C)C1=O)C2 | 2 | -0.32
76 | C#CCN(Cc1ccc(F)cc1)C(=O)c1ccc2c(c1)nc(C)n2[C@H]1CCS(=O)(=O)C1 | -9 | 1.88
77 | Cc1ccc(CN2CCC(CNc3nccc(-c4ccccn4)n3)CC2)o1 | -3 | 0.73
78 | COc1cc(Cn2cc(S(=O)(=O)N(C)C)cn2)ccc1C | 8 | -1.66
79 | CC1CCCN(c2cc(-c3nc(C4CCC(F)(F)C4)no3)ccn2)C1 (centres undefined) | -1 | 0.11
80 | O=C(c1cc2c(F)cccc2[nH]1)N1CCC(CN2CCOCC2)CC1 | -6 | 0.96
81 | Cc1cnccc1N1CCCN(c2cncc(C(=O)N3CCN(C)CC3)n2)CC1 | -5 | 0.82
82 | COc1cc(CCC(=O)N2CCN(C)[C@@H](CCO)C2)ccc1C | -11 | 1.88
